# Measured values as given in the supplement of paper PMC8728848.
# Some of the results follow.
# B1: rCnSL-A (Clitocybe nebularis) (protein)
# chain: VNPNLPGPNDVFVGFRGTNNIVGAIYEKDGIKDTPLNNGADAEMGPGSYITDGLFTARIFASGSAGNNPGTTATVCKIYASGVQWRGAPKGYIPVAYFGNGPTAEQRRQTYLRTLGLPGTAIRFGNLNTNPGQGPTAPRQMVVPPGPLRSLLKASCFPAADTRLPQTLHYFEKRVDWNIITAADSQTWGH
# Key:
# Assay in all cases: glycan array binding signal (z-score within array); higher = stronger binding
# Settings in all cases: glycan notation: IUPAC condensed, linker removed
# [1] = target: Neu5Ac(a2-3)GalNAc
# In short: (§1)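 From the Consortium for Functional Glycomics database, 3228 arrays were curated, keeping only those whose protein sequence was available. Binding is given as a within-array Z-score averaged across arrays sharing a protein sequence and across linkers. Negative Z-scores can be read as non-binding.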
# [2] = target: Neu5Ac(a2-3)GalNAc(b1-4)GlcNAc
# In short: as §1
# [3] = target: Neu5Ac(a2-3)[GalNAc(b1-4)]Gal(b1-4)Glc
# In short: as §1
# [4] = target: Neu5Ac(a2-3)[GalNAc(b1-4)]Gal(b1-4)GlcNAc
# In short: as §1
# [5] = target: Neu5Ac(a2-3)[GalNAc(b1-4)]Gal(b1-4)GlcNAc(b1-3)GalNAc
# In short: as §1
# [6] = target: Neu5Ac(a2-3)[Neu5Ac(a2-6)]GalNAc
# In short: as §1
# [7] = target: Neu5Ac(a2-6)Gal
# In short: as §1
# [8] = target: Neu5Ac(a2-6)Gal(b1-3)GlcNAc(b1-3)[Gal(b1-4)GlcNAc(b1-6)]Gal(b1-4)Glc
# In short: as §1
# [9] = target: Neu5Ac(a2-6)Gal(b1-4)Glc
# In short: as §1
# [10] = target: Neu5Ac(a2-6)Gal(b1-4)GlcNAc
# In short: as §1
# [11] = target: Neu5Ac(a2-6)Gal(b1-4)GlcNAc(b1-2)Man
# In short: as §1
# [12] = target: Neu5Ac(a2-6)Gal(b1-4)GlcNAc(b1-2)Man(a1-3)Man(b1-4)GlcNAc(b1-4)GlcNAc
# In short: as §1
# [13] = target: Neu5Ac(a2-6)Gal(b1-4)GlcNAc(b1-2)Man(a1-3)[Gal(b1-4)GlcNAc(b1-2)Man(a1-6)]Man(b1-4)GlcNAc(b1-4)GlcNAc
# In short: as §1
# [14] = target: Neu5Ac(a2-6)Gal(b1-4)GlcNAc(b1-2)Man(a1-3)[GlcNAc(b1-2)Man(a1-6)]Man(b1-4)GlcNAc(b1-4)GlcNAc
# In short: as §1
# [15] = target: Neu5Ac(a2-6)Gal(b1-4)GlcNAc(b1-2)Man(a1-3)[GlcNAc(b1-4)][Neu5Ac(a2-6)Gal(b1-4)GlcNAc(b1-2)Man(a1-6)]Man(b1-4)GlcNAc(b1-4)GlcNAc
# In short: as §1
# [16] = target: Neu5Ac(a2-6)Gal(b1-4)GlcNAc(b1-2)Man(a1-3)[Man(a1-6)]Man(b1-4)GlcNAc(b1-4)GlcNAc
# In short: as §1
# [17] = target: Neu5Ac(a2-6)Gal(b1-4)GlcNAc(b1-2)Man(a1-3)[Neu5Ac(a2-3)Gal(b1-4)GlcNAc(b1-2)Man(a1-6)]Man(b1-4)GlcNAc(b1-4)GlcNAc
# In short: as §1
# [18] = target: Neu5Ac(a2-6)Gal(b1-4)GlcNAc(b1-2)Man(a1-3)[Neu5Ac(a2-6)Gal(b1-4)GlcNAc(b1-2)Man(a1-6)]Man(b1-4)GlcNAc(b1-4)GlcNAc
# In short: as §1
# [19] = target: Neu5Ac(a2-6)Gal(b1-4)GlcNAc(b1-2)Man(a1-3)[Neu5Ac(a2-6)Gal(b1-4)GlcNAc(b1-2)Man(a1-6)]Man(b1-4)GlcNAc(b1-4)[Fuc(a1-6)]GlcNAc
# In short: as §1
# [20] = target: Neu5Ac(a2-6)Gal(b1-4)GlcNAc(b1-2)Man(a1-6)Man(b1-4)GlcNAc(b1-4)GlcNAc
# In short: as §1
# [21] = target: Neu5Ac(a2-6)Gal(b1-4)GlcNAc(b1-2)Man(a1-6)[Gal(b1-4)GlcNAc(b1-2)Man(a1-3)]Man(b1-4)GlcNAc(b1-4)GlcNAc
# In short: as §1
# [22] = target: Neu5Ac(a2-6)Gal(b1-4)GlcNAc(b1-2)Man(a1-6)[GlcNAc(b1-2)Man(a1-3)]Man(b1-4)GlcNAc(b1-4)GlcNAc
# In short: as §1
# [23] = target: Neu5Ac(a2-6)Gal(b1-4)GlcNAc(b1-2)Man(a1-6)[Man(a1-3)]Man(b1-4)GlcNAc(b1-4)GlcNAc
# In short: as §1
# [24] = target: Neu5Ac(a2-6)Gal(b1-4)GlcNAc(b1-2)[Neu5Ac(a2-6)Gal(b1-4)GlcNAc(b1-4)]Man(a1-3)[GlcNAc(b1-4)][Neu5Ac(a2-6)Gal(b1-4)GlcNAc(b1-2)[Neu5Ac(a2-6)Gal(b1-4)GlcNAc(b1-6)]Man(a1-6)]Man(b1-4)GlcNAc(b1-4)GlcNAc
# In short: as §1
# [25] = target: Neu5Ac(a2-6)Gal(b1-4)GlcNAc(b1-2)[Neu5Ac(a2-6)Gal(b1-4)GlcNAc(b1-4)]Man(a1-3)[GlcNAc(b1-4)][Neu5Ac(a2-6)Gal(b1-4)GlcNAc(b1-4)Man(a1-6)]Man(b1-4)GlcNAc(b1-4)GlcNAc
# In short: as §1
# [26] = target: Neu5Ac(a2-6)Gal(b1-4)GlcNAc(b1-2)[Neu5Ac(a2-6)Gal(b1-4)GlcNAc(b1-6)]Man(a1-6)[Neu5Ac(a2-6)Gal(b1-4)GlcNAc(b1-2)Man(a1-3)][GlcNAc(b1-4)]Man(b1-4)GlcNAc(b1-4)GlcNAc
# In short: as §1
# [27] = target: Neu5Ac(a2-6)Gal(b1-4)GlcNAc(b1-3)Gal(b1-3)GlcNAc
# In short: as §1
# [28] = target: Neu5Ac(a2-6)Gal(b1-4)GlcNAc(b1-3)Gal(b1-4)GlcNAc
# In short: as §1
# [29] = target: Neu5Ac(a2-6)Gal(b1-4)GlcNAc(b1-3)Gal(b1-4)GlcNAc(b1-2)Man(a1-3)[Neu5Ac(a2-6)Gal(b1-4)GlcNAc(b1-3)Gal(b1-4)GlcNAc(b1-2)Man(a1-6)]GalNAc
# In short: as §1
# [30] = target: Neu5Ac(a2-6)Gal(b1-4)GlcNAc(b1-3)Gal(b1-4)GlcNAc(b1-3)Gal(b1-4)GlcNAc
# In short: as §1
# [31] = target: Neu5Ac(a2-6)Gal(b1-4)GlcNAc(b1-3)Gal(b1-4)GlcNAc(b1-3)Gal(b1-4)GlcNAc(b1-2)Man(a1-3)[Neu5Ac(a2-6)Gal(b1-4)GlcNAc(b1-3)Gal(b1-4)GlcNAc(b1-3)Gal(b1-4)GlcNAc(b1-2)Man(a1-6)]GalNAc
# In short: as §1
# [32] = target: Neu5Ac(a2-6)Gal(b1-4)GlcNAc(b1-3)Gal(b1-4)GlcNAc(b1-3)GalNAc
# In short: as §1
# [33] = target: Neu5Ac(a2-6)Gal(b1-4)GlcNAc(b1-3)Gal(b1-4)GlcNAc(b1-3)[Neu5Ac(a2-6)Gal(b1-4)GlcNAc(b1-3)Gal(b1-4)GlcNAc(b1-6)]GalNAc
# In short: as §1
# [34] = target: Neu5Ac(a2-6)Gal(b1-4)GlcNAc(b1-3)Gal(b1-4)GlcNAc(b1-6)[Gal(b1-3)]GalNAc
# In short: as §1
# [35] = target: Neu5Ac(a2-6)Gal(b1-4)GlcNAc(b1-3)Gal(b1-4)[Fuc(a1-3)]GlcNAc(b1-3)Gal(b1-4)[Fuc(a1-3)]GlcNAc
# In short: as §1
# [36] = target: Neu5Ac(a2-6)Gal(b1-4)GlcNAc(b1-3)GalNAc
# In short: as §1
# [37] = target: Neu5Ac(a2-6)Gal(b1-4)GlcNAc(b1-3)[Neu5Ac(a2-6)Gal(b1-4)GlcNAc(b1-6)]GalNAc
# In short: as §1
# [38] = target: Neu5Ac(a2-6)Gal(b1-4)GlcNAc(b1-6)GalNAc
# In short: as §1
# [39] = target: Neu5Ac(a2-6)Gal(b1-4)GlcNAc(b1-6)[Gal(b1-3)GlcNAc(b1-3)]Gal(b1-4)Glc
# In short: as §1
# [40] = target: Neu5Ac(a2-6)Gal(b1-4)GlcNAc(b1-6)[Gal(b1-3)]GalNAc
# In short: as §1
# [41] = target: Neu5Ac(a2-6)Gal(b1-4)GlcNAc6S
# In short: as §1
# [42] = target: Neu5Ac(a2-6)GalNAc
# In short: as §1
# [43] = target: Neu5Ac(a2-6)GalNAc(b1-4)GlcNAc
# In short: as §1
# [44] = target: Neu5Ac(a2-6)GalNAc(b1-4)GlcNAc6S
# In short: as §1
# [45] = target: Neu5Ac(a2-6)GlcNAc(b1-4)GlcNAc
# In short: as §1
binder,measurement,setting,value
B1,glycan array binding signal (z-score),[1],-0.307
same,glycan array binding signal (z-score),[2],-0.232
same,glycan array binding signal (z-score),[3],-0.278
same,glycan array binding signal (z-score),[4],-0.285
same,glycan array binding signal (z-score),[5],0.066
same,glycan array binding signal (z-score),[6],-0.254
same,glycan array binding signal (z-score),[7],-0.26
same,glycan array binding signal (z-score),[8],-0.088
same,glycan array binding signal (z-score),[9],-0.27
same,glycan array binding signal (z-score),[10],-0.237
same,glycan array binding signal (z-score),[11],-0.241
same,glycan array binding signal (z-score),[12],-0.28
same,glycan array binding signal (z-score),[13],-0.139
same,glycan array binding signal (z-score),[14],-0.247
same,glycan array binding signal (z-score),[15],-0.186
same,glycan array binding signal (z-score),[16],-0.219
same,glycan array binding signal (z-score),[17],-0.206
same,glycan array binding signal (z-score),[18],-0.176
same,glycan array binding signal (z-score),[19],-0.227
same,glycan array binding signal (z-score),[20],-0.346
same,glycan array binding signal (z-score),[21],-0.231
same,glycan array binding signal (z-score),[22],-0.289
same,glycan array binding signal (z-score),[23],-0.285
same,glycan array binding signal (z-score),[24],-0.193
same,glycan array binding signal (z-score),[25],-0.04
same,glycan array binding signal (z-score),[26],-0.269
same,glycan array binding signal (z-score),[27],-0.095
same,glycan array binding signal (z-score),[28],-0.254
same,glycan array binding signal (z-score),[29],-0.146
same,glycan array binding signal (z-score),[30],-0.13
same,glycan array binding signal (z-score),[31],0.6
same,glycan array binding signal (z-score),[32],-0.201
same,glycan array binding signal (z-score),[33],0.406
same,glycan array binding signal (z-score),[34],-0.204
same,glycan array binding signal (z-score),[35],-0.246
same,glycan array binding signal (z-score),[36],-0.196
same,glycan array binding signal (z-score),[37],-0.219
same,glycan array binding signal (z-score),[38],-0.161
same,glycan array binding signal (z-score),[39],-0.183
same,glycan array binding signal (z-score),[40],-0.241
same,glycan array binding signal (z-score),[41],-0.302
same,glycan array binding signal (z-score),[42],-0.241
same,glycan array binding signal (z-score),[43],-0.347
same,glycan array binding signal (z-score),[44],-0.252
same,glycan array binding signal (z-score),[45],-0.287
